# Experimental data published in article PMC4336329 (PLoS ONE, 2015).
# Out of some 310,000 compounds screened, about 14,000 (4.5%) showed an effect of 50% or more. Effects have a minus sign here. This is one part of the list.
# Biological target: human ether-à-go-go-related gene (hERG) potassium channel (human, UniProt Q12809)
# Assay: primary screen, population patch clamp on CHO cells stably expressing hERG
# 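Also: peak tail current of the secondary pulse compared with the same well before compound.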
# Chain of human ether-à-go-go-related gene (hERG) potassium channel (Q12809 whole entry, looked up): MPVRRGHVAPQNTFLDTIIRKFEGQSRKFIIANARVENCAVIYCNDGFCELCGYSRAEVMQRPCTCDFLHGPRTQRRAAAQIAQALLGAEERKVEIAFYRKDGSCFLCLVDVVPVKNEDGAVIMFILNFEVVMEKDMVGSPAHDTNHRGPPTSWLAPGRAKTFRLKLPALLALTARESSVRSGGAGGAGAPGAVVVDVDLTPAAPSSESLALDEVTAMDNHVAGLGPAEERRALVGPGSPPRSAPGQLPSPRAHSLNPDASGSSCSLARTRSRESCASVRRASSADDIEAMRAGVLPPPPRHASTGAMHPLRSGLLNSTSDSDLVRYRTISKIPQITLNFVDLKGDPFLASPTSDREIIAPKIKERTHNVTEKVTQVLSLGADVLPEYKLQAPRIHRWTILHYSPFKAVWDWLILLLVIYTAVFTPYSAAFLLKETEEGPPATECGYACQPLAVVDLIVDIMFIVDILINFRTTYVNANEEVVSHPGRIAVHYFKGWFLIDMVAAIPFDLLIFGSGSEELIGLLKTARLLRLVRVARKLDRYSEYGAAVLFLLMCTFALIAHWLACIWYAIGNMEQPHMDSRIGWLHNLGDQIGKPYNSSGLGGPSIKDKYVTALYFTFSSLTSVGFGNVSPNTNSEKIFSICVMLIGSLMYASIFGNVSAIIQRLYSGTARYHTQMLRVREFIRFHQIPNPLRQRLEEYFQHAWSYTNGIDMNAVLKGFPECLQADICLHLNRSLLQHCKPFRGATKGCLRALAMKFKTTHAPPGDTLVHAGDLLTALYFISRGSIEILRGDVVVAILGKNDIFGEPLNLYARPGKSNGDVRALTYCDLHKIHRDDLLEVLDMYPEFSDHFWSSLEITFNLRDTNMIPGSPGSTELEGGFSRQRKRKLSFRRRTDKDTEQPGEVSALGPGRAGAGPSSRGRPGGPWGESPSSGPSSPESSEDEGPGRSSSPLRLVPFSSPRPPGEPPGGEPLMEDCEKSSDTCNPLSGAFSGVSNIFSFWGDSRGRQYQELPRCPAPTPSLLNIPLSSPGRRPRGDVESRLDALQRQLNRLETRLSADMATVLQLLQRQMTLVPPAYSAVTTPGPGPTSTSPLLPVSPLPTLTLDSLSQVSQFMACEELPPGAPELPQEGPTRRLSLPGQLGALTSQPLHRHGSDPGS
row,SMILES,"hERG current change (%, negative = inhibition) at 10uM [%]"
1,CCSc1nn2c(=O)c3ccccc3nc2s1,-13.2
2,Cn1c(=O)c2c(nc(CN3CCOCC3)n2CCCc2ccccc2)n(C)c1=O,-9
3,CC(C(=O)c1c[nH]c(C(N)=O)c1)c1ncc(C(F)(F)F)cc1Cl (stereo not drawn),3.74
4,CCN(CC)S(=O)(=O)c1ccc(C(=O)OCn2c(SC)nnc(C)c2=O)cc1,-10.4
5,Cc1nnc2ccc(-c3ccc(NC(=O)c4ccc(Cl)nc4)cc3)nn12,-15
6,CCCc1ccc(OCCNC(C)=O)cc1,4.46
7,O=C(Nc1ccc(O)cc1)c1cc2ccccc2c(=O)s1,15.7
8,CCc1ccc(/C=C2/Sc3ccccc3N(CC(=O)NCC3CCCO3)C2=O)cc1 (stereo not drawn),1.25
9,O=C(CN1C(=O)C2CCCCC2C1=O)Nc1ccccc1C(=O)O (stereo not drawn),10.7
10,S=c1[nH]c(-c2ccc(Br)cc2)cn1CCc1ccccc1,8.25
11,O=C(CSc1nc2ccccc2s1)NNC(=S)Nc1ccccc1,8.28
12,Cc1ccc2nc(C(=O)O)c(C(=O)O)nc2c1,6.96
13,NS(=O)(=O)c1ccc(NC(=O)c2ccccc2Cl)cc1,16.4
14,Cc1cc(C)c(NC(=O)CNC(=O)COC(=O)Cc2cccs2)c(C)c1,-2.81
15,Cc1ccc(-c2noc(CN3CCCCC3)n2)cc1,34.6
16,COc1cc(/C=N/Nc2ccccc2)ccc1O,-1.52
17,CCOP(=O)(OCC)c1nc(-c2ccc(F)cc2)oc1NCc1ccccc1,-32.4
18,Clc1ccccc1-c1nnc2n1CCCCC2,9.14
19,Cc1cc(C)n(-c2ccc(C(=O)Nc3cc(S(=O)(=O)N(C)C)ccc3Cl)cc2)n1,-3.29
20,CCC(=O)N1CCc2cc(S(=O)(=O)N3CCN(c4ccccn4)CC3)ccc21,10.9
21,CCC(=O)N1c2ccc(S(=O)(=O)CCC(=O)N3CCN(c4ccccc4F)CC3)cc2CC1C (stereo not drawn),-22.7
22,COc1ccc(S(=O)(=O)N2CCC(C(N)=O)CC2)cc1C(=O)N1CCCCCC1,12.6

row,SMILES,"hERG current change (%, negative = inhibition) at 10uM [%]"
1,Cc1ccc(C2CC(C(F)(F)F)n3nc(C(=O)Nc4c(C)n(C)n(-c5ccccc5)c4=O)cc3N2)cc1 (stereo not drawn),3.88
2,O=C(CNC(=O)c1cccc([N+](=O)[O-])c1)NC1CCCc2ccccc21 (stereo not drawn),-8.58
3,O=C1c2ccccc2C(=O)N1CCC(c1ccccc1)c1ccco1 (stereo not drawn),-15.5
4,CN(C)/C=C1\C(=O)N(c2ccc([N+](=O)[O-])cc2)N=C1c1ccccc1,-38.1
5,Cc1nc2ccc(N=NC3=C(O)CCCC3=O)cc2s1,10.2
6,COCCn1c(SCC(=O)Nc2sc(C)c(C)c2C#N)nnc1-c1ccc(OC)cc1,-52.1
7,COc1ccc(C(=O)CCN2CCN(c3ccccc3OC)CC2)cc1.Cl,-50.3
8,COc1cccc(NC(=O)CN(C)C(=O)c2cc(S(=O)(=O)N3CCCCCC3)ccc2OC)c1,-50.9
9,CCCCc1ccc(NC(=O)CSC2=C(C#N)C(c3ccco3)C3=C(CCCC3=O)N2)cc1 (stereo not drawn),10.3
10,Cc1cccc(N2CCN(C(c3ccccc3)c3nnnn3CC3CCCO3)CC2)c1C (stereo not drawn),4.3
11,O=C(NCc1ccccc1)NC1(C(=O)N2CCN3CCCC3C2)CCCCC1 (stereo not drawn),-1.89
12,Cc1ccc2c(c1)c1c3n2CC(=C2C(=O)OC(C)(C)OC2=O)NC3CCC1.Cl (stereo not drawn),-29.5
13,COCCCn1c(Cc2csc(Nc3cccc(Cl)c3)n2)nnc1SCC(=O)OC1CCCCC1,-11
14,COCCCn1c(-c2ccc(Cl)cc2)n[nH]c1=S,16.1
15,Cc1cc(NC(=O)c2ccc3c(c2)C(=O)N(CC(C)C)C3=O)no1,2.6
16,Cn1cc(Cl)c(C(=O)N2CCN(c3ncccn3)CC2)n1,10.6
17,COc1ccccc1N(CC(=O)NC1CCCC1)C(=O)CCC(=O)Nc1cc(C)on1,10.1
18,Cc1ccnc(NC(=O)CSc2ccccn2)c1,22.6
19,COc1cccc2sc(N(CCCN(C)C)C(=O)c3sc4ccccc4c3Cl)nc12.Cl,-24.6
20,Cc1ccc(CNC(=O)C2CCC(CNc3c(N4CCOCC4)c(=O)c3=O)CC2)cc1 (stereo not drawn),15.4
21,Cc1ccc(S(=O)(=O)/N=C2/NC(=O)/C(=C/c3ccccc3)S2)cc1,-47.1
22,CCOC(=O)c1sc(NC(=O)c2sccc2C)cc1C,3.8

row,SMILES,"hERG current change (%, negative = inhibition) at 10uM [%]"
1,O=C(Cn1nnc(-c2ccccc2)n1)N/N=C/c1ccco1,25.3
2,CCNC(=S)N1CCN(S(=O)(=O)c2cccc(C(F)(F)F)c2)CC1,0.783
3,O=C(COC(=O)c1n[nH]c2ccccc12)c1ccc(F)c(F)c1,-4.91
4,O=[N+]([O-])c1ccc(N2CCOCC2)cc1O,-6.04
5,CC1=C(C)CC(C(=O)c2ccc(C)cc2)C(C(=O)O)C1 (stereo not drawn),-3.59
6,C=CCN(c1ccc(C(=O)OC)cc1)S(=O)(=O)c1ccccc1,-7.78
7,COc1cc2c(cc1OC)C(C(=O)Nc1cccc(C)n1)C(c1cccnc1)N(C)C2=O (stereo not drawn),-9.56
8,Cc1nnc(NC(=O)CSc2ccc3nnc(-c4ccccn4)n3n2)s1,-9.79
9,COc1ccc(-n2nc3c(c2NC(=O)c2ccccc2S(=O)(=O)C(F)F)CS(=O)(=O)C3)cc1,-9.27
10,COc1ccc(Br)cc1/C=c1\sc2nc(-c3ccco3)nn2c1=O,12.8
11,COCCNC(=O)CSc1nc2c(n1-c1ccccc1)CCCC2,12.9
12,Cc1ccc(SCc2ccc(C(=O)Nc3ccccc3C(=O)NC(C)C)cc2)cc1,13.6
13,O=C1CC(c2ccc3c(c2)OCCO3)Oc2ccccc21 (stereo not drawn),3.81
14,CN(c1ncc(C(F)(F)F)cc1Cl)N1C(=O)c2cccc([N+](=O)[O-])c2C1=O,1.97
15,O=C(Nc1ccc(N2CCCC2)cc1)c1ccccc1[N+](=O)[O-],5.14
16,Cc1cc(C)cc(-n2nnc(C(=O)NCc3ccco3)c2N)c1,-29.8
17,O=C(Cc1n[nH]c(=O)[nH]c1=O)N/N=C/c1ccccc1,2.78
18,CC(=O)COc1ccc2oc(=O)cc(-c3cc4ccccc4o3)c2c1,-2.1
19,CCN(CC)C(=O)c1[nH]cnc1C(=O)NCC(=O)OC(C)(C)C,-8.81
20,Cc1ccc(C)c(NC(=O)CSc2nccn2Cc2ccco2)c1,-0.144
21,CCS(=O)(=O)N1CCC(C(=O)Oc2ccc(Br)cc2)CC1,9.82
22,CC(C)CSC1=NSC2=NC(=O)/C(=C\c3cccs3)C(=N)N12,20.2

row,SMILES,"hERG current change (%, negative = inhibition) at 10uM [%]"
1,Cc1cc(=O)n(CC(=O)NC2CC2)c2c1c(C)nn2-c1ccccc1,18.8
2,CC1(C)CC(=O)C(C=Nc2ccc(NC3=C(C#N)C(=O)CC(C)(C)C3)cc2)=C(O)C1,11
3,C=C1C[C@H]2[C@@H]3C=C(C)C4=CC(=O)CC[C@]4(C)[C@H]3CC[C@]2(C)[C@@]1(OC(C)=O)C(C)=O,-21.2
4,Cc1cc(C)c2cc3c(N)c(C(=O)Nc4c(C)[nH]c(=O)[nH]c4=O)sc3nc2c1,0.789
5,O=C(NC1CCCC1)c1cccc2c1C(=O)c1ccc(Cl)cc1S2(=O)=O,2.87
6,O=S(=O)(Nc1cccc2ncccc12)c1cccs1,-13
7,CCCCCCOC(=O)Cc1c(C)nc(N)[nH]c1=O,5.25
8,COc1ccc(/C=C2\CCCC(C(=O)C(F)(F)F)=C2O)cc1,16.3
9,COc1ccc([N+](=O)[O-])cc1NC(=O)CCS(=O)(=O)c1ccc(Br)cc1,-0.991
10,COc1cc2c(cc1C=O)OCO2,4.19
11,COc1cc(-c2nnc(-c3cc(OC)c(OC)c(OC)c3)o2)cc(OC)c1OC,0.923
12,CCNC(=O)NC(=O)C(C)Oc1ccc(C(=O)OC)cc1 (stereo not drawn),3.92
13,CN1CCN(C(=O)C(C(=O)c2ccc(F)cc2)n2ccccc2=O)CC1 (stereo not drawn),-1.24
14,COCCNC(=O)c1ccc(Cn2c(SCC(=O)NCC3CCCO3)nc3ccc(Br)cc3c2=O)cc1 (stereo not drawn),-17.6
15,COc1cccc(OCCCOc2ccccc2C(C)C)c1,-3.28
16,CC(=O)Nc1ccc(N2C(=O)c3ccc(S(=O)(=O)c4ccc(C(=O)O)cc4)cc3C2=O)cc1,8.06
17,O=C(Oc1ccc2c(c1)CCC2)N1CCOCC1,12.4
18,O=C(CCCN1C(=O)c2cccc3cccc(c23)C1=O)N1CCN(c2ccc(F)cc2)CC1,-1.91
19,COc1ccc(NC(=O)C2CCCN2S(=O)(=O)c2ccc3c(c2)CCC(=O)N3)c(OC)c1 (stereo not drawn),-16.8
20,O=[N+]([O-])c1cc(S(=O)(=O)Nc2ccccc2)ccc1NCc1cccnc1,-0.455
21,COc1ccc(-c2cc(C(=O)NNC3=NCCC3)c3c(C)nn(-c4ccccc4)c3n2)cc1,10.8
